39 compounds from the supplement of paper PMC8748497 can be followed below.

Some of the results follow.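 The calls were made as follows: active = fold change of at least 2 over DMSO control; inactive = below 2-fold.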 Many values rest on one well or one pass, so single values are uncertain.

The test has as its system HEK293 ARE/NRF2-luciferase reporter. As to the kind of experiment: ARE/NRF2 luciferase reporter activity, fold change over DMSO control; higher = stronger NRF2/ARE reporter activation. The following applies: 10 µM; 24 h. A general note: A reporter such as luciferase makes a cellular process visible.
For `COc1cc2ccc(=O)oc2c(OC)c1OC`, the “ARE/NRF2 luciferase reporter activity” value was inactive: 0.976.

With `CC(O)(P(=O)(O)O)P(=O)(O)O`, the “ARE/NRF2 luciferase reporter activity” value was inactive: 1.06.

In the case of `CO/N=C(\C(=O)N[C@@H]1C(=O)N2C(C(=O)O)=C(CSc3nnnn3C)CS[C@H]12)c1csc(N)n1`, the “ARE/NRF2 luciferase reporter activity” value is inactive: 0.705.

On to `Oc1c(Br)cc(Br)c2cccnc12`, for which the “ARE/NRF2 luciferase reporter activity” value is inactive: 0.181.

`CO[C@H]1[C@H](O)[C@@H](O)[C@H](O)[C@H](O)[C@H]1O`: the “ARE/NRF2 luciferase reporter activity” value was inactive: 0.905.

In the case of `O=C(OC[C@H]1O[C@@H](OC(=O)c2cc(O)c(O)c(OC(=O)c3cc(O)c(O)c(O)c3)c2)[C@H](OC(=O)c2cc(O)c(O)c(OC(=O)c3cc(O)c(O)c(O)c3)c2)[C@@H](OC(=O)c2cc(O)c(O)c(OC(=O)c3cc(O)c(O)c(O)c3)c2)[C@@H]1OC(=O)c1cc(O)c(O)c(OC(=O)c2cc(O)c(O)c(O)c2)c1)c1cc(O)c(O)c(OC(=O)c2cc(O)c(O)c(O)c2)c1`, the “ARE/NRF2 luciferase reporter activity” value was inactive: 0.474.

As to `Cc1c(NC(=O)c2cccnc2)c(=O)n(-c2ccccc2)n1C`, the “ARE/NRF2 luciferase reporter activity” value was inactive: 0.863.

With `C[C@@](Cc1ccc(O)c(O)c1)(NN)C(=O)O`, the “ARE/NRF2 luciferase reporter activity” value was inactive: 1.81.

On to `O=C(O)CCCC[C@@H](S)CCS` (racemic), for which the “ARE/NRF2 luciferase reporter activity” value is inactive: 1.19.

In the case of `Cc1cnc(C(=O)NCCc2ccc(S(=O)(=O)NC(=O)NC3CCCCC3)cc2)cn1`, the “ARE/NRF2 luciferase reporter activity” value was inactive: 0.915.

In the case of `O=C(/C=C/c1ccc(O)c(O)c1)OCCc1ccccc1`, the “ARE/NRF2 luciferase reporter activity” value is active: 7.75.

Consider `CC(C)(C)NC(=O)[C@H]1CC[C@H]2[C@@H]3CC[C@H]4NC(=O)C=C[C@]4(C)[C@H]3CC[C@]12C`, for which the “ARE/NRF2 luciferase reporter activity” value was inactive: 0.986.

In the case of `OC[C@H]1O[C@@H](O[C@@H]2[C@@H](CO)OC(O)(CO)[C@H]2O)[C@H](O)[C@@H](O)[C@H]1O` (mixture of isomers), the “ARE/NRF2 luciferase reporter activity” value was inactive: 0.959.

Consider `O=C(O)Cc1cc(I)c(Oc2cc(I)c(O)c(I)c2)c(I)c1`, for which the “ARE/NRF2 luciferase reporter activity” value was inactive: 0.826.

`CC(O)(CC(=O)O)CC(=O)O`: the “ARE/NRF2 luciferase reporter activity” value was inactive: 1.1.

Consider `C=C1CC[C@H](O)C/C1=C/C=C1\CCC[C@]2(C)[C@@H]([C@H](C)CCCC(C)C)CC[C@@H]12`, for which the “ARE/NRF2 luciferase reporter activity” value was active: 3.55.

Turning to `O=c1c(O)c(-c2ccccc2)oc2cc(O)cc(O)c12`, the “ARE/NRF2 luciferase reporter activity” value is inactive: 0.595.

As to `C[n+]1c2cc(N)ccc2cc2ccc(N)cc21`, the “ARE/NRF2 luciferase reporter activity” value is inactive: 0.251.

For the compound `COc1cc(C)c(C(=O)O)c(O)c1`, the “ARE/NRF2 luciferase reporter activity” value was inactive: 1.07.

For `COC(=O)C[C@H]1C(C)(C)[C@@H](OC(C)=O)[C@@H]2CC3C4CC(=O)O[C@@H](c5ccoc5)[C@]4(C)CCC3[C@@]1(C)C2=O` (some centres undefined), the “ARE/NRF2 luciferase reporter activity” value was inactive: 1.02.

As to `Nc1ccc(O)c(N)c1`, the “ARE/NRF2 luciferase reporter activity” value was inactive: 0.34.

As to `FC(F)(F)COCC(F)(F)F`, the “ARE/NRF2 luciferase reporter activity” value was inactive: 1.18.

As to `Cc1cc(C2CCCCC2)n(O)c(=O)c1`, the “ARE/NRF2 luciferase reporter activity” value was inactive: 0.0858.

For `COC(=O)Nc1nc2cc(C(=O)c3cccs3)ccc2[nH]1`, the “ARE/NRF2 luciferase reporter activity” value was inactive: 1.54.

For the compound `O=C(O)c1ccccc1C(=O)Nc1ccc(S(=O)(=O)Nc2nccs2)cc1`, the “ARE/NRF2 luciferase reporter activity” value was inactive: 1.02.

`COc1cc2nc(N3CCN(C(=O)c4ccco4)CC3)nc(N)c2cc1OC`: the “ARE/NRF2 luciferase reporter activity” value was inactive: 0.975.

For the compound `Cc1cc(=O)oc2cc(O)c(O)cc12`, the “ARE/NRF2 luciferase reporter activity” value is inactive: 1.47.

Take `CC(=O)Oc1ccc(C(c2ccc(OC(C)=O)cc2)c2ccccn2)cc1`: the “ARE/NRF2 luciferase reporter activity” value was inactive: 0.843.

Consider `COc1c2occc2cc2ccc(=O)oc12`, for which the “ARE/NRF2 luciferase reporter activity” value is inactive: 1.38.

With `CO[C@@H]1[C@@H](O[C@@H]2O[C@H](C)C(O[C@H]3C[C@@](C)(O)[C@@H](OC(=O)CC(C)C)[C@H](C)O3)[C@H](N(C)C)[C@H]2O)[C@@H](CC=O)C[C@@H](C)[C@@H](O)C=CC=CC[C@@H](C)OC(=O)C[C@H]1O` (some centres undefined) [KITASAMYCINS [A1 shown]], the “ARE/NRF2 luciferase reporter activity” value was inactive: 1.

Take `CC(C)Nc1ncccn1`: the “ARE/NRF2 luciferase reporter activity” value is inactive: 0.836.

On to `CC(=O)c1ccc(S(=O)(=O)NC(=O)NC2CCCCC2)cc1`, for which the “ARE/NRF2 luciferase reporter activity” value was inactive: 0.848.

Turning to `COc1c(-c2ccccc2)oc2cc(O)cc(O)c2c1=O`, the “ARE/NRF2 luciferase reporter activity” value is inactive: 1.25.

As to `CC(C)c1nc(N(C)S(C)(=O)=O)nc(-c2ccc(F)cc2)c1/C=C/[C@@H](O)C[C@@H](O)CC(=O)O`, the “ARE/NRF2 luciferase reporter activity” value is inactive: 1.2.

On to `COc1ccc(-n2nc(C(N)=O)c3c2C(=O)N(c2ccc(N4CCCCC4=O)cc2)CC3)cc1`, for which the “ARE/NRF2 luciferase reporter activity” value was inactive: 1.02.

`C=C(CC)C(=O)c1ccc(OCC(=O)O)c(Cl)c1Cl`: the “ARE/NRF2 luciferase reporter activity” value is active: 2.67.

For the compound `O=C1OC(=O)[C@H]2[C@@H]1[C@@H]1CC[C@H]2O1`, the “ARE/NRF2 luciferase reporter activity” value is inactive: 0.721.

Take `CO[C@H]1C[C@H](O[C@@H]2/C(C)=C\C[C@@H]3C[C@@H](C[C@]4(C=C[C@H](C)[C@@H](C(C)C)O4)O3)OC(=O)[C@@H]3C=C(C)[C@@H](O)[C@H]4OC/C(=C/C=C\[C@@H]2C)[C@]43O)O[C@@H](C)[C@H]1O[C@H]1C[C@@H](OC)[C@H](NC(C)=O)[C@H](C)O1`: the “ARE/NRF2 luciferase reporter activity” value is inactive: 0.861.

On to `C[C@H](CCC(=O)O)[C@H]1CC[C@H]2[C@@H]3CC[C@@H]4C[C@H](O)CC[C@]4(C)[C@H]3C[C@H](O)[C@]12C`, for which the “ARE/NRF2 luciferase reporter activity” value was inactive: 0.903.
